Hit rate of the full screen: of about 360,000 compounds, about 6,000 (1.7%) were called active. This list was built around the results that the source calls inconclusive (neither active nor inactive); the mix of calls is not that of the screen. The call rests on the fitted dose curve; in most records, active means well fitted cell-killing curve with a large enough effect; inconclusive means small, poorly fitted or top-dose-only effect, or effect the other way; inactive means flat fitted curve, though single readings scatter. Potencies of inconclusive entries are left out as doubtful fits.
Assay: qHTS for induction of synthetic lethality in tumor cells producing 2HG: qHTS for the HT-1080-NT fibrosarcoma cell line;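 further: NT is the 2HG producing partner of a matched IDH1 knockdown line; nearly all actives have a fitted effect of over 55% in size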;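 on activity, negative = less viability: 0% = DMSO-treated cells and -100% = media-only wells without cells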
Conditions: HT-1080-NT fibrosarcoma viability, CellTiter-Glo ATP luminescence, 48 h; activity, negative = less viability: at 46.1 µM (top of the series) unless noted
Procedure, shortened: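 A 48-hour cytotoxicity screen used HT-1080-NT cells plated 2 hours before compound delivery. ATP-based CellTiter-Glo luminescence measured viability, normalized to DMSO and no-cell controls.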
Potency means the concentration at half of the fitted maximal effect; tags describe the fitted curve by direction and shape.

Compound	Potency	activity, negative = less viability
COc1cc(C(=O)/C=C/c2cccnc2)c([N+](=O)[O-])cc1OC	inconclusive [cytotoxic, single point]	
C=CCn1c(SCCOc2ccc(OC)cc2)nnc1C(C)NC(=O)c1ccc(OC)cc1 (stereo unspecified)	inconclusive [cytotoxic, single point]	
CN1C(C(=O)Nc2ccc(OC(F)(F)F)cc2)=CC(c2ccco2)=NS1(=O)=O	inconclusive [cytotoxic, single point]	
CCNC(=O)C1(C)CCN1C(=O)CCc1cccc(Cl)c1 (stereo unspecified)		inactive: -3.38%
CCN(CC)C(=O)c1cccc(-c2csc(C(C)(O)c3ccc(OC)cc3)n2)c1 (stereo unspecified)	active: 5.8 µM	
CSCC[C@H](NC(=O)c1ccc(Cl)c([N+](=O)[O-])c1)c1nc2ccccc2[nH]1	inconclusive [cytotoxic, single point]	
Cc1ccc2cccc(NS(=O)(=O)c3ccccc3)c2n1	inconclusive [cytotoxic, single point]	
c1ccc(-c2cc(-c3ccncc3)nc3ccc4ccccc4c23)cc1	inconclusive [cytotoxic, single point]	
CCCn1c(SCC(=O)NCc2ccco2)nnc1-c1ccncc1	inconclusive [rising, single point]	
COc1ccc(C(=O)O/N=C(\N)Cc2ccc(Cl)c(Cl)c2)cc1OC	active: 14.6 µM	
Cc1nc(Nc2ccc(S(=O)(=O)N3CCCC3)cc2)c2nnn(Cc3ccccc3)c2n1	inconclusive [cytotoxic, partial curve]	
CCN1/C(=C/C=C/c2sc3ccccc3[n+]2CC)Sc2ccccc21	active: 1.64 µM	
Cc1cccc(C2(c3cccc(C)c3)CC2C(=O)Nc2ccc([N+](=O)[O-])cc2O)c1 (stereo unspecified)	inconclusive [cytotoxic, single point]	
O=c1c2ccccc2nc2c3ccccc3c(NCc3ccccn3)nn12		inactive: 8.06%
Cc1ccc(-c2nnn(CC(=O)N(CC(=O)NC3CCCCC3)c3cnc4ccccc4c3)n2)o1		inactive: 3.37%
Cc1cc(C)n(Cc2ccc(NC(=O)c3nn(C)cc3[N+](=O)[O-])cc2)n1	active: 10 µM	
CCn1cc(/C=C(\NC(=O)c2ccccc2OC)C(=O)NCCN2CCOCC2)c2ccccc21		inactive: 5.36%
COc1cccc(C(=O)Nc2sc(C(C)C)cc2C(N)=O)c1OC	inconclusive [cytotoxic, single point]	
CC(=O)Nc1ccc(NC(=O)C(=O)NCC(c2ccco2)N2CCc3ccccc3C2)cc1 (stereo unspecified)	inconclusive [cytotoxic, single point]	
O=C(Cn1cnc([N+](=O)[O-])n1)N/N=C/c1ccccc1O	inconclusive [cytotoxic, single point]	
COc1ccc(NC(=O)CN2C(=O)C(C)Oc3ccc(C)cc32)cc1 (stereo unspecified)	inconclusive [cytotoxic, single point]	
Cc1ccc(-c2csc3ncnc(N4CCc5ccccc5C4)c23)cc1		inactive: -8.88%
COCCNC(=S)N1CCN(c2cccc(C)c2C)CC1		inactive: -11.9%
CC(=O)NCCNC(=O)C1Cc2c(-c3ccccc3)ccnc2O1 (stereo unspecified)		inactive: 28.8%

Compound	Potency	activity, negative = less viability
C[C@H](NC(=O)c1nc[nH]c1C(=O)N[C@@H](Cc1ccccc1)C(=O)OCc1ccccc1)C(=O)OC(C)(C)C		inactive: -2.48%
COC(=O)c1ccc(NC2=CC(=O)CC(C)(C)C2)cc1	inconclusive [cytotoxic, single point]	
CC(C)(C)C(=O)Nc1nc(-c2ccc3c(c2)OCO3)cs1		inactive: -23.1%
Oc1ccc(N=Cc2ccc(OCc3ccccc3)cc2)cc1	inconclusive [cytotoxic, single point]	
Cc1cc2c(cc(C(=O)OCC(=O)NCc3ccco3)n2C)s1	active: 13 µM	
CCCC(O)(c1ccc(Br)cc1)C(CN1CCOCC1)c1ccc(Cl)cc1 (stereo unspecified)	inconclusive [cytotoxic, partial curve, poor fit]	
COc1ccc2[nH]c3c(c(=O)c2c1)CCCC3	inconclusive [rising, partial curve]	
Cn1c(SCC(=O)N2CCc3ccccc32)nc2cccnc21		inactive: -12.2%
COc1ccc(/C=C/C(=O)NC(=S)NNC(=O)c2cnccn2)cc1	inconclusive [cytotoxic, full curve]	
COc1cc(CNCCN2CCOCC2)ccc1OCc1cccc(Cl)c1	inconclusive [cytotoxic, partial curve]	
CCCCNC(=O)NS(=O)(=O)c1ccc(NC(=O)C(NC(N)=O)C(C)CC)cc1 (stereo unspecified)	inconclusive [rising, partial curve]	
O=c1c2c([nH]n1-c1ccccc1)C[C@@H](C1CCCCC1)O[C@H]2c1ccc(F)cc1	inconclusive [cytotoxic, full curve]	
COc1ccc(-c2csc(N3CCN(c4cc(C)nc5ccccc45)CC3)n2)cc1OC	inconclusive [cytotoxic, single point]	
N#C/C(=C/c1ccc(N2CCOCC2)o1)c1ccc(Cl)cc1	active: 6.31 µM	
CC1CC(C)CN(CCOc2cccc3ccccc23)C1 (stereo unspecified)	inconclusive [cytotoxic, partial curve]	
COc1ccc(COc2cc(-c3cccc(OC)c3)nc3ccc(NC(=O)C(C)C)cc23)cc1	inconclusive [cytotoxic, full curve]	
CCN(CC)CCNc1nc(-c2ccc(OC(F)F)cc2)c(C)s1	inconclusive [cytotoxic, single point]	
C=CCNC(=S)Nc1nc2c(cc1C(=O)OCC)CCCC2		inactive: -13.2%
CCC(C)c1ccc(C(C)NC(=S)NC2CCCCC2)cc1 (stereo unspecified)	inconclusive [cytotoxic, single point]	
O=C1OC(/C(=C\Nc2ccc(F)cc2F)[N+](=O)[O-])c2ccccc21 (stereo unspecified)	inconclusive [cytotoxic, single point]	
Clc1cccc(Cl)c1Cn1cnc2c(NCc3ccco3)ncnc21		inconclusive: 0.786% [cytotoxic]
COc1ccc(C(=O)NC(=S)NNC(=O)c2ccc(C)cc2)cc1	inconclusive [cytotoxic, single point]	
CCN(CC)c1nc(OCCNC(=O)Nc2ccccc2)nc(N(CC)CC)n1	active: 20.6 µM	
CCN1C=CC(=C2C(=O)c3ccccc3C2=O)C=C1	active: 10 µM	

Compound	Potency	activity, negative = less viability
COc1cc(OC)cc(C(=O)Nc2nc(CC(=O)NCc3ccc(F)cc3)cs2)c1	inconclusive [cytotoxic, single point]	
S=c1[nH]nc(-c2ccccn2)n1/N=C/c1ccc(Cl)c(Cl)c1		inactive: 17.5%
Cc1nc(/C=C/c2ccccc2)[nH]c(=O)c1-c1ccccc1	inconclusive [cytotoxic, single point]	
CCc1ccc(OCC(=O)NC(NC(=S)Nc2ccccc2C)C(Cl)(Cl)Cl)cc1 (stereo unspecified)	active: 16.4 µM	
NC(=S)N/N=C/c1ccc(-c2cc(Cl)c(Cl)cc2Cl)o1	inconclusive [cytotoxic, single point]	
CN(C)S(=O)(=O)c1cccc(NC(=O)C2Cc3ccccc3CN2C(=O)c2ccco2)c1 (stereo unspecified)		inactive: 1.6%
Cn1c(SCC(=O)Nc2nc3ccccc3s2)nnc1-c1ccccc1		inactive: -8.59%
COc1cc(Cl)cc2c1Sc1ccccc1/C2=C/CCN(C)C	inconclusive [cytotoxic, single point]	
CC(C)c1ccc(CN2CCC2(C)C(=O)Nc2cccc(Oc3ccccc3)c2)cc1 (stereo unspecified)	inconclusive [cytotoxic, partial curve, poor fit]	
Cc1cc(C)n(-c2nc3ccccc3nc2NCCc2ccccc2)n1	inconclusive [rising, single point]	
CC(C)NC(=O)C1(C)CCN1Cc1ccc(-c2ccccc2)cc1 (stereo unspecified)	inconclusive [cytotoxic, partial curve, poor fit]	
CCOC(=O)C1=C[C@@H](C(C)(C)C)N(S(=O)(=O)c2ccc(C)cc2)[C@H]1c1ccccc1	inconclusive [cytotoxic, single point]	
O=C(/C=C/c1ccco1)NC(=S)Nc1cccc(-c2nc3ccccc3s2)c1	active: 23.1 µM	
O=S(=O)(c1ccc(N2CCCC2)cc1)C(F)(F)F	inconclusive [cytotoxic, single point]	
Cc1ccc(-n2nnnc2C(Cl)(Cl)c2nnnn2-c2ccc(C)cc2)cc1	inconclusive [cytotoxic, single point]	
Cc1ccccc1Cn1c2ccccc2c2cnn(CC(=O)NCc3ccco3)c(=O)c21	inconclusive [cytotoxic, single point]	
O=C(c1ccc(C(F)(F)F)cc1)N1CCC(=O)N(C(COCc2ccc(C(F)(F)F)cc2)Cc2ccccc2)CC1 (stereo unspecified)		inconclusive: -30.8% [cytotoxic]
CCOC(=O)C1=C(Nc2ccc(OC)cc2)C(N)=NC1=N	active: 2.31 µM	
NS(=O)(=O)c1ccc(NC(=O)CSc2nc3ccccc3n2-c2ccccc2)cc1	inconclusive [cytotoxic, single point]	
CC(=O)Nc1ccc(NC(=O)C(C)OC(=O)CCC2CCCC2)cc1 (stereo unspecified)		inactive: 7.06%
CC1CC(C)CN(CCCCOc2ccc([N+](=O)[O-])cc2)C1 (stereo unspecified)		inactive: -4.48%
Cc1cc([N+](=O)[O-])ccc1NCc1cccc([N+](=O)[O-])c1	inconclusive [cytotoxic, single point]	
COC(=O)CSc1ccc2nnc(-c3ccc(OC)c(OC)c3)n2n1		inactive: 4.38%
